Where two headings read alike, the source gives them in different places.
Assays:
[1] = molecular target: nanH (recombinant sialidase from C. perfringens) (Clostridium perfringens, UniProt P10481); assay: biochemical
[2] = molecular target: nanJ (recombinant sialidase from C. perfringens) (Clostridium perfringens, UniProt A0A0H2YT71); assay: biochemical
[3] = molecular target: NA (influenza neuraminidase from A/WSN/1933/H1N1) (Influenza A virus, UniProt P03470); assay type: biochemical, influenza virus A/WSN/1933/H1N1; conditions: MUNANA substrate
UniProt P03470, sequence (P03470 whole entry): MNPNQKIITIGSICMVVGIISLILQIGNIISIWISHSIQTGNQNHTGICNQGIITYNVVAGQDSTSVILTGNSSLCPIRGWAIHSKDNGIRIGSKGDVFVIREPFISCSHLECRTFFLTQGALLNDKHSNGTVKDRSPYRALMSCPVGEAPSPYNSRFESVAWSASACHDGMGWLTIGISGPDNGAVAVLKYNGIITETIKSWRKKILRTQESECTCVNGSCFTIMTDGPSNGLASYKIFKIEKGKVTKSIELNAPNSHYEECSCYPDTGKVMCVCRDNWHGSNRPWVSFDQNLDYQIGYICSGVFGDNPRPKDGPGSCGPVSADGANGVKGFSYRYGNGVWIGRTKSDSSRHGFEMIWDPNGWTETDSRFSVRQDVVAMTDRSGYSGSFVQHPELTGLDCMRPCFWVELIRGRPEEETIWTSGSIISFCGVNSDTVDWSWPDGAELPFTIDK

[4] = molecular target: nanI (recombinant sialidase from C. perfringens) (Clostridium perfringens, UniProt A0A0H2YQR1); assay: biochemical
four human sialidases = assay type: binding
bacterial sialidases = assay type: binding
Neu1 = molecular target: T1, Neu1 (Homo sapiens, UniProt Q99519); assay type: binding; conditions: pH 9
T1 construct: FLAG (N); FLAG (C); expressed in transfected cells; host or cells: 293T

Neu3 = molecular target: T2, Neu3 (Homo sapiens, UniProt Q9UQ49); assay type: binding
T2 construct: FLAG (N); expressed in transfected cells; host or cells: 293T
T2 sequence (Q9UQ49 1-428): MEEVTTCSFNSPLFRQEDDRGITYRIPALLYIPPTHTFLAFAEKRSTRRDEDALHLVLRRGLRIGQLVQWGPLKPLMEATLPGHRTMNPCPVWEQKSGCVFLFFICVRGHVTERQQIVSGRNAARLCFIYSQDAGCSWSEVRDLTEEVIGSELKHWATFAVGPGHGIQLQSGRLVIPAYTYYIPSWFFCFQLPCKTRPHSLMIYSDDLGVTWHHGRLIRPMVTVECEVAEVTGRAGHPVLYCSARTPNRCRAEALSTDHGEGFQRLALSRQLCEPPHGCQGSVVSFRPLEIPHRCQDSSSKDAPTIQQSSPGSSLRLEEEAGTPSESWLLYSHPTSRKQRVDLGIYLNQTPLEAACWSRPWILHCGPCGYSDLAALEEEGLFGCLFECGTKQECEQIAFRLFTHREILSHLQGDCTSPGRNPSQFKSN

[5] = system: influenza virus (NA), bacteria (nanA, nanB, nanC, nanJ, nanI and nanH) and human (Neu1, Neu2, Neu3 and Neu4) sialidases; assay type: biochemical; conditions: all tested sialidases
[6] = molecular target: T3, Neu2 (recombinant sialidase from human) (Homo sapiens, UniProt Q9Y3R4); assay: biochemical
T3 construct: FLAG (N); expressed in transfected cells; host or cells: 293T
T3 sequence (Q9Y3R4 whole entry): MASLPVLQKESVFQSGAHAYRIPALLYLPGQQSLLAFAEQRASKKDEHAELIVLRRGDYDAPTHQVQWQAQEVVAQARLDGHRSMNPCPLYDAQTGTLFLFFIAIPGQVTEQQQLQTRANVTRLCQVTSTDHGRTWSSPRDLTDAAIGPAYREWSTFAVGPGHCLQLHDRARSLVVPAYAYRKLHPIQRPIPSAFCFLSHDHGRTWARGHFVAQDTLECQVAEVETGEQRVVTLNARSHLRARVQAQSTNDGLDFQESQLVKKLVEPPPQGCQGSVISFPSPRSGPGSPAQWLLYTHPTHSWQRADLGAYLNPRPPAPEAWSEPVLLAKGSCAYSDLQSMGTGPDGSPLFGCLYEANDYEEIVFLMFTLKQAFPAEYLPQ

[7] = Cell permeability of the probes
[8] = system: Neu1 activity in fibroblasts (D551, GM02921, GM02922); assay: Live cell sialidase labeling of normal and sialidosis fibroblasts; assay type: cell-based, human; conditions: more severe sialidosis (GM02921) fibroblasts versus milder sialidosis (GM02922) cells; FIG. 6A
[9] = system: Neu4 expressing 293T cells; assay: Confocal co-localization of PDFSA sialidase labeling and flag staining; assay type: cell-based, human; conditions: PDFSA 0.2 mM, 15 h
[10] = molecular target: Neu1 expressing 293T cells (Homo sapiens, UniProt Q99519); assay: as above; conditions: PDFSA 0.2 mM, 15 h

UniProt P10481, sequence (P10481 whole entry, looked up): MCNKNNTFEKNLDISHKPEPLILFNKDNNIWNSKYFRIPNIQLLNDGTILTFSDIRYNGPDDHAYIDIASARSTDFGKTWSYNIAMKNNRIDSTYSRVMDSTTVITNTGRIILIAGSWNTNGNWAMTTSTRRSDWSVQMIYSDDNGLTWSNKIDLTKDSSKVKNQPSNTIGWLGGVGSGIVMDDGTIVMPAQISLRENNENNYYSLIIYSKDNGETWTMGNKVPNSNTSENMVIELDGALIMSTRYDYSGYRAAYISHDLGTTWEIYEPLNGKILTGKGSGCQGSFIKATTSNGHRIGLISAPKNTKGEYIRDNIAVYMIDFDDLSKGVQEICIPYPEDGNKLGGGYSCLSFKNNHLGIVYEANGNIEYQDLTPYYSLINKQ

Work on CC(=O)N[C@H]1[C@H]([C@H](O)[C@H](O)CO)OC(C(=O)O)=C[C@@H]1O [DANA, 2,3-didehydro-2-deoxy-N-acetylneuraminic acid] yielded an IC50 [1] of 15.7 µM, an IC50 [2] of 4.5 µM and an IC50 [3] of 5.4 ± 1.6 µM. The IC50 [4] was 1.9 µM.
For C#CCCC(=O)NC1C(O)C(F)C(F)(C(=O)O)OC1[C@H](O)[C@H](O)CO (stereo partly drawn) [DFSA-5-yne, 5-(Pent-4-ynamido)-2,3,5-trideoxy-3-fluoro-D-erythro-β-L-manno-non-2-ulopyranosylonic fluoride], the sialidase labeling (four human sialidases) was “specific DFSA labeling”, the fluorosialosyl-enzyme adduct formation (bacterial sialidases) was “formed DFSA adducts” and the sialidase labeling (Neu1) was “poorly labeled”. For the same compound, the IC50 [2] was 34.9 ± 4.2 µM, the IC50 [3] was 51 ± 24 µM and the sialidase labeling (Neu3; pH 7) was “weak labeling”. The sialidase labeling (Neu3; pH 9) was “poorly labeled”, the IC50 [4] was 25.5 ± 0.6 µM and the “half maximal inhibitory concentrations” value [5] was “micro- to submicromolar”. The IC50 [6] was 26.1 ± 12.8 µM and the cell permeability [7] was “poorly permeable”.
Compound CCOC(=O)C1=C[C@@H](OC(CC)CC)[C@H](NC(C)=O)[C@@H](N)C1 [Oseltamivir] has an IC50 [1] of over 100 µM, an IC50 [2] of over 100 µM and an IC50 [4] of over 100 µM. For the same compound, the IC50 [6] was over 100 µM.
With C#CCCC(=O)NC1C(OC(C)=O)C(F)C(F)(C(=O)OC)OC1[C@H](OC(C)=O)[C@@H](COC(C)=O)OC(C)=O (stereo partly drawn) [PDFSA-5-yne, Methyl 5-(pent-4-ynamido)-4,7,8,9-tetra-O-acetyl-2,3,5-trideoxy-3-fluoro-D-erythro-β-L-manno-non-2-ulopyranosylonate fluoride] the sialidase labeling [8] was “significantly reduced”, the “co-localization of sialidase activity and sialidase protein” value [9] was 68% and the “co-localization of sialidase activity and sialidase protein” value [10] was about 85%. The inhibition of sialidases ([5]; data not shown) was “did not inhibit” and the cell permeability ([7]; not told) was “enhances cell permeable properties”.
CC(=O)N[C@H]1[C@H]([C@H](O)[C@H](O)CO)OC(C(=O)O)=C[C@@H]1N=C(N)N [Zanamivir] gave an IC50 [1] of 83 µM, an IC50 [2] of over 100 µM and an IC50 [4] of 77 µM.

— patent publication US10214765B2, “Cell-permeable probes for identification and imaging of sialidases” (Academina Sinica, priority 2012, dated 2019)
